Test results: PubChem BioAssay AID651820 (National Center for Advancing Translational Sciences (NCATS), 2012)
Among all 340,000 compounds or so, about 12,000 (3.5%) were called active. This list was built around the results that the source calls inconclusive (neither active nor inactive); the mix of calls is not that of the screen. The call rests on the fitted dose curve; in most records, active means well fitted inhibition curve with a large enough effect; inconclusive means small, poorly fitted or top-dose-only effect, or another doubt; inactive means no such curve, though single readings can be large or run the other way. No potency is given beside an inconclusive call; the fits are too rough.

Assay: qHTS Assay for Inhibitors of Hepatitis C Virus (HCV)
Conditions: Huh7.5.1 HCVcc-Cre (HCVcc is cell-culture hepatitis C virus) infection, luciferase reporter, 44 h; series mostly up to 41.8 µM
How it was run: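 A cell-based infection assay in which seeded cells (1,000 per well) receive test compound after 4 h, are inoculated with HCVcc-Cre at approximately 0.5 moi, and are incubated 44 h before luminescence detection.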
Potency means the concentration at half of the fitted maximal effect; tags describe the fitted curve by direction and shape.

SMILES | Potency
Cc1nc(NC(=O)c2csc3ccccc23)sc1C | inactive
CNCc1cc(Br)c(OCC(=O)Nc2ccccc2OC)c(OC)c1 | inconclusive [inhibitor, full curve, poor fit]
Cc1ccc(-c2nc(NCc3ccco3)c3ccccc3n2)cc1 | inconclusive [inhibitor, partial curve]
COc1ccccc1N1CCN(C(=O)C(C)N(c2ccc(C)c(C)c2)S(C)(=O)=O)CC1 (stereo not drawn) | inconclusive [inhibitor, single point]
COC(=O)c1c(C)n(-c2ccccc2)c2ccc(O)cc12 | inconclusive [inhibitor, partial curve]
O=C(Nc1cccn(Cc2c(Cl)cccc2Cl)c1=O)c1ccc(Cl)cc1Cl | active: 11.2 µM
COc1ccccc1NC(=S)NNC(=O)c1cc(C)nn1C | inactive
COc1ccccc1-n1c(SCC(=O)N2CCOCC2)nc2cccnc21 | inactive
CCOC(=O)c1c(NC(N)=O)sc(C)c1C | active: 0.891 µM
CCCCC(=O)Nc1cc2nn(-c3ccc(OC)cc3)nc2cc1C | inconclusive [inhibitor, single point]
Cc1ccc(NC(=O)CSc2ccc(-c3ccccn3)nn2)c(C)c1 | inconclusive [inhibitor, single point]
COc1cccc(C(=O)N(C)C(C)c2nc3ccccc3s2)c1 (stereo not drawn) | inactive
Oc1ccc(Cn2ccnc2)c2cccnc12 | inconclusive [inhibitor, single point]
c1ccc2c(CCNCc3ccc4c(c3)OCO4)c[nH]c2c1 | inconclusive [inhibitor, single point]
CCCCn1c(N)c(N(CC(C)C)C(=O)c2cc(S(=O)(=O)N3CCOCC3)ccc2Cl)c(=O)[nH]c1=O | inactive
Cc1ccc(NC(=O)[C@@H](NC(=O)c2cccc(S(=O)(=O)N3CCOCC3)c2)C(C)C)cc1C | active: 10 µM
CCOc1ccc(-c2nc(CSCC(=O)N3CCN(C(=O)c4ccco4)CC3)c(C)o2)cc1 | inconclusive [inhibitor, full curve, poor fit]
CN(C)C/C=C/C(O)(c1ccccc1)c1ccccc1 | inactive
CCOC(=O)C1=C(COc2ccc(F)cc2Cl)NC(=O)NC1c1cc(C)ccc1C (stereo not drawn) | inconclusive [inhibitor, partial curve, poor fit]
CC(C)Cc1nc(Nc2ccccc2C#N)c2nnn(Cc3ccccc3)c2n1 | active: 15.8 µM
CCCn1ccnc1SC(C)C(=O)Nc1c(C)n(C)n(-c2ccccc2)c1=O (stereo not drawn) | inconclusive [inhibitor, full curve, poor fit]
COc1ccccc1Nc1nc(-c2ccccc2)nc2ccccc12 | active: 10 µM
Cc1cc(=O)oc2cc(OCC(=O)OCC(=O)NCCc3ccccc3)ccc12 | inactive
COc1cccc(NC(=O)C2CCN(c3ncccn3)CC2)c1 | inconclusive [inhibitor, single point]

SMILES | Potency
CCOC(=O)c1oc2nc(CC(C)C)c3c(c2c1N)CCCC3 | active: 2.82 µM
O=C(CCn1cccc1)Nc1cc(F)ccc1F | inconclusive [inhibitor, partial curve]
CCOc1ccccc1NC(=O)CN1CCC(C(=O)c2ccc(F)cc2)CC1 | inconclusive [inhibitor, partial curve]
O=C(CNC(=O)N1CC(=O)Nc2ccccc21)NCCc1ccc(Cl)cc1 | inactive
Cc1ccc(S(=O)(=O)Nc2ccc3c(c2)C(=O)N([C@H](C)CO)C[C@H](C)[C@@H](CN(C)Cc2ccc(-c4ccccc4)cc2)O3)cc1 | inconclusive [inhibitor, partial curve]
COc1ccc(Cl)cc1NC(=O)CCc1ccccc1 | inconclusive [inhibitor, partial curve]
COc1cc2nc3occc3c(OC)c2cc1OC | inconclusive [inhibitor, single point]
COc1ccc(C(O)c2nccn2Cc2ccccc2)cc1 (stereo not drawn) | inconclusive [inhibitor, partial curve]
O=C(NCCN1CCCCC1)c1cc(Cl)ccc1Cl | inactive
CC(=O)Nc1ccc(-c2cc(-c3ccccc3)nc(-c3ccccc3)n2)cc1 | inactive
O=C(COc1cc(F)ccc1[N+](=O)[O-])Nc1cc(S(=O)(=O)N2CCCC2)ccc1Cl | active: 14.1 µM
O=C(CCn1cnc2ccccc21)N/N=C/c1ccccc1O | inconclusive [inhibitor, single point]
CCn1c(Cc2ccccc2)nnc1SCC(=O)Nc1ccc(N2CCOCC2)c(Cl)c1 | inconclusive [inhibitor, full curve, poor fit]
Cc1ccccc1-c1nc2ccccc2[nH]1 | inactive
O=S(=O)(Oc1ccc(C(=S)N2CCOCC2)cc1)c1ccc(Cl)cc1 | inconclusive [inhibitor, single point]
CCN(CC)S(=O)(=O)c1ccc(Cl)c(C(=O)Nc2cc(C)nn2-c2ccccc2C(F)(F)F)c1 | inconclusive [inhibitor, partial curve]
CCC(C)c1ccccc1NC(=O)C1CCCO1 (stereo not drawn) | inactive
CC(=O)c1c(C)oc2ccc(NS(=O)(=O)c3ccc(C)cc3)cc12 | inconclusive [inhibitor, full curve, poor fit]
CCN(CC)C(=O)CSc1nc2cc3c(cc2c(=O)n1Cc1ccco1)OCO3 | active: 10 µM
Cc1ccc(NC(=O)c2ccc3ccccc3n2)nc1 | inconclusive [inhibitor, single point]
Cc1c([C@H]2[C@@H](CC#N)C2(C)C)c2ccccc2n1C | inconclusive [inhibitor, partial curve, poor fit]
COc1cc(NC(=O)Nc2ccccc2OC)c(OC)cc1NC(=O)CN1CCCCC1 | active: 2.24 µM
C=CCn1c(SCC(=O)Nc2ccccc2OC)nnc1-c1ccccn1 | active: 7.94 µM
CCOc1ccccc1C1CC(=O)Nc2cc3c(cc21)OCCO3 (stereo not drawn) | inconclusive [inhibitor, partial curve]
